Test results from publication PMC6212790.
This is one part of the list. At the low end of the ranking, values are background and their order means little.

Biological target: T1, GST-Rok (full length) (UniProt O34857)
T1 sequence: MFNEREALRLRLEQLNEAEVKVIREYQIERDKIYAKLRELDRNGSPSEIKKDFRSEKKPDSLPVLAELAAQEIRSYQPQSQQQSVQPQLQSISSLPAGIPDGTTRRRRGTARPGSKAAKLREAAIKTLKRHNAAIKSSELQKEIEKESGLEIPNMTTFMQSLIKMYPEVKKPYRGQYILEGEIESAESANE
Experiment: protein binding microarray;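 note: rank score from −0.5 (least bound) to 0.5 (best bound)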
Settings: Rok is a gene silencer of Bacillus subtilis; high values mean tight binding; most listed sequences are background and not binding sites; double strand, one strand shown

Sequence	binding signal [E-score]
CATTTGTC	-0.0407
AAACGGAA	0.00814
CTCAGCAA	-0.041
CTTAGGCA	-0.0383
CATATTAA	0.268
AGTACACG	0.0183
CACAGATC	-0.168
AGTATGCG	0.241
GGACCCCC	-0.434
GGGACTGA	-0.162
AAACGACT	0.082
AGATCCTA	0.165
TATTTGGA	-0.0855
ATGCATGG	0.0449
GACCCCCA	-0.361
GCATAGGA	0.125
ACGGGGAG	-0.286
GAGCCCGA	-0.287
CAGTGTCA	-0.0698
CGGAGATC	-0.127
GGAGCGTA	-0.198
TCGGTTAA	0.186
AAATGTCA	0.0409
CAGAGAGA	-0.196
CTATACCA	0.258

Sequence	binding signal [E-score]
TAGCAGGA	-0.0921
GACGTTAA	-0.0985
GATGACCC	-0.239
CTTTTTGA	-0.251
GTTTGTTA	0.102
CTGGTAAA	0.251
GGGTTCTA	-0.15
CGACTTGC	-0.131
AACTAGGG	-0.00258
CCCGTTCG	-0.227
ACTGCGCT	-0.136
CTGACTGC	-0.191
CACGACGC	-0.178
AGCCGGCC	-0.256
GTAAGGAC	-0.0554
AACAGAGA	-0.136
GCAAGGCA	-0.205
AGACCGAT	-0.0525
AACCCGAA	-0.173
CATCGTTC	-0.0505
ACTAGCCG	0.114
ACGGTTAG	-0.0112
AGCACCGA	-0.0625
CAAGCTAA	-0.00235
AGAACCTG	-0.0781

Sequence	binding signal [E-score]
CGGCGTGA	-0.25
GGTTAGAA	0.0354
AAGGTGGT	-0.141
CAGCGAAC	-0.101
AAACGGGA	-0.162
ACGCAAGA	0.0403
GTCGGAGA	-0.31
CTAATTCC	0.131
CCTGGTGC	-0.218
AGGCACCG	-0.419
CGGAGAAG	-0.274
CCAAGCGA	-0.224
ACTATGAG	0.0614
CTAGTCCA	0.161
TAGTCACA	0.157
AATTGGCT	-0.0243
CACCGCCA	-0.265
GCGTTCAA	-0.0683
CTGCGCCC	-0.143
CGAGGACA	-0.202
AACTGATC	0.0349
ACTCTTAG	0.0979
CGCCTCAG	-0.351
GGGAATCA	-0.172
CAGTGGGG	-0.332

Sequence	binding signal [E-score]
CCTTTGCA	-0.12
CATCCTAG	0.00966
ATAGTGAC	0.0366
TAATCGTA	0.165
CCATACCA	0.0774
AACACATC	-0.108
CTATTCAC	-0.0178
GTGGGGTA	-0.311
CTTGGCGC	-0.281
ATATCGAT	0.316
GAATTCTC	-0.0203
CTTCGTGC	0.0588
AGTTGGCG	-0.0309
CAAGTCGA	-0.176
CGTCGAAA	-0.0316
AGCGGAGC	-0.0591
CGGCGACA	-0.319
AGGCACTA	-0.106
CAGAATCG	-0.0487
GCGCCCGA	-0.449
ACAAGCAC	-0.138
GTTTAGCA	-0.0552
AGCTTGAG	-0.248
CCAGATCG	-0.18
CTGGTGTA	-0.0749

Sequence	binding signal [E-score]
CGCCGGCA	-0.323
AAAAAACT	0.107
TATTTCCA	0.141
GATACCTA	0.34
GGGCTAAA	-0.0834
AAATCTGA	0.0348
AACGCCGA	-0.224
AGAGGGCA	-0.24
GGTCTGGA	-0.0664
GCTCATCA	0.00342
TCGCTAGA	0.0746
AACGCTGG	-0.158
GAGCTAGC	-0.0118
AGGGAGCA	-0.18
CGAGCTTC	-0.206
GAACCCGA	-0.162
ATAGACAG	0.00316
GACATCTC	-0.194
CAGGTTAC	0.0518
GTCCTACA	0.0992
AAGGTACA	0.0623
GTCCGATA	-0.0216
GCGCTAGA	0.131
ATCGTGGG	-0.0882
ACAGTGAA	0.109

Sequence	binding signal [E-score]
AAACACAG	0.0603
GTCCCCTA	-0.324
AGGACGTG	-0.000597
ATGGTATG	0.0823
CTTCCACA	0.0321
CGGGGGCA	-0.398
ATTGCACA	0.0502
ACCATCAA	-0.18
CACGCTAA	0.0793
CCGAATAA	0.118
AAATAACA	0.202
CCTCAGTC	-0.396
AGACGCTC	-0.102
CACCTAGA	0.0454
ACGATTCC	0.0729
AAGCGCTA	0.147
ATACTGGC	0.0319
GACCTCGA	-0.0759
AACTAAAT	0.362
ATGGAGCA	-0.185
CGGCTCGA	-0.0686
ATAGACTG	0.0799
GGCCCCCC	-0.455
ACTTCGAA	0.0934
ACACGACT	0.00806

Sequence	binding signal [E-score]
CATAGATG	0.203
AATCGGGA	0.0322
GTTTACAA	0.174
AAACGGCA	-0.0848
CGTGTTGC	0.00225
CCCGAGTA	-0.211
ACCGCGTC	-0.0941
CCTCAGCG	-0.0631
GAGGTCCC	-0.335
GGCCTTAC	-0.147
GCGCCACA	-0.251
CTTTAGGA	-0.0742
ATGGCAAC	-0.194
AGTAGCGA	0.181
CTGCTGAC	-0.217
AATACCGC	0.251
AGTAGTGG	0.203
ACCTGTAT	0.117
GAAATCGC	0.00351
CTGCCGTC	-0.38
CGCCGTGA	-0.062
CTTGAAGA	-0.175
CGTCAAAA	-0.00138
CACGACAC	-0.146
ATATTAGA	0.24

Sequence	binding signal [E-score]
AAAGTTGG	0.032
CTGATGTC	0.0198
AATATGAG	-0.0602
AGATACTG	0.113
AACGCTAC	0.171
AAAGGAAT	0.0124
TCTACGCA	-0.00311
GGAGATCC	-0.242
CTAATAAA	0.171
GAGCATAC	-0.128
AGAAGCGG	-0.201
CTGTGGAC	-0.156
GCCTACAC	0.00486
CAGACGCA	-0.0371
GGGTAAAA	0.184
AGGTAGCC	-0.0813
AATCAAGC	0.0332
CCTTGTCG	-0.161
GTCGGTAA	0.141
CCGCTTTA	-0.0867
TGTTGGAA	-0.0347
AAGGCCAG	-0.199
CCGAACAG	-0.0433
ATGGTCTC	-0.103
CGCCGCAC	-0.229

Sequence	binding signal [E-score]
ACCACGGT	0.114
CCCTGGAG	-0.208
GAGTCAGC	0.055
ACTTATCC	-0.0862
AGTAAGAC	0.078
TTGCGCAA	-0.0529
ACTGCTGC	-0.00253
CATGGTTA	0.126
TCATACGA	-0.0601
ACGTAGCA	0.0492
AGTTAGCC	0.186
ATGCTCGC	-0.171
GATCGTCA	-0.0172
AGGCTATA	-0.0265
GCCGAATA	-0.0225
TGGTCGAA	-0.11
GATTATCC	-0.0122
GCGGGTTA	-0.053
AAGCCCAG	-0.197
CAAAGGTA	0.077
AAATTTGG	0.035
AAACAAAT	-0.0568
ACAGGACA	-0.0266
CGTGTAGA	0.127
AATGACGC	-0.12

Sequence	binding signal [E-score]
ACAGGGCA	-0.257
GATGACTA	0.076
AATAGCGG	0.114
CTGTTACA	0.103
AAGGGCCT	-0.381
CCAGTCAC	-0.133
ACTAACCC	-0.0267
ACTGTCTG	-0.0539
CCAGGCGG	-0.412
AAATGTGC	0.146
AAGCGAGA	-0.309
ATGTTTAG	0.0567
TAGTTATA	0.382
ATCGCTAA	0.148
ACCGTACT	0.0822
TCCCCTCA	-0.389
ATCTACTA	0.446
ATGATCAA	0.12
AGTCCAGG	-0.14
ACTCACCT	-0.0165
TAGTCCCA	0.0415
CTCGGATC	0.0657
AACTGGCG	-0.0525
ATTCGCAA	0.0676
AGGCTCCG	-0.313

Sequence	binding signal [E-score]
CCAGGATC	0.0249
AGGTGGCC	-0.339
AGATTACT	0.248
ACACATTG	0.0472
GATCGCCA	0.0261
ACCTGCCT	-0.214
AAAGTAGG	0.196
CATACCAC	0.302
GCCAATCA	-0.146
AAAGGGAC	-0.219
AATGGAAA	0.14
ACGTACGC	0.0808
CATGCGCG	-0.197
AAGGGTGG	-0.184
CATTCGCG	-0.009
CTCTAAGC	-0.239
GATAACGC	0.0798
ACTCCGTC	-0.105
CTAATTAA	0.233
ACTCTTCT	-0.0347
ATACGCAC	0.23
GACTAAAA	0.123
ATGGGCGG	-0.362
GACGCCTA	-0.241
CATGTGGG	-0.139

Sequence	binding signal [E-score]
GACTATAC	0.165
CCCATGGC	-0.375
CAATCCAA	-0.0175
GAGCTAGA	0.0438
ACACAACG	0.0586
CTTAGGGA	-0.0723
AAGTCACT	-0.0315
CCGTACAA	0.188
CCGTCTAG	-0.225
CACTCCAC	-0.158
CGTCATAA	0.104
GACACCCA	-0.218
CTGCGTAC	-0.0064
CGGCGTCA	-0.14
ATAAGTGC	0.218
CTGCCTGC	-0.376
CTGGATGA	-0.0571
AGGGCTTC	-0.393
ACAATCCG	-0.0704
TCCTAGGA	0.00233
AGCAGAAT	0.0225
ACGTCTGA	-0.13
ATGATGGA	-0.0583
TCTATGCA	0.183
GAGGGCGA	-0.309

Sequence	binding signal [E-score]
GAGGGTGA	-0.104
AGAAATAC	0.306
AGAATGAA	0.111
GCTCGTAA	0.0131
TCATGTAA	0.125
CTAAAAAG	-0.0698
AAACTGGA	0.103
AAGCGCAC	-0.267
AAAAAGCA	-0.0681
GATGGCCC	-0.261
ATCAATTC	0.2
AGAGAGCA	-0.184
ATAGCTCG	0.119
ACTGTCAA	0.215
CAATAGCG	0.0208
ACGGGTTC	-0.114
AGCAGGAA	-0.0945
AAAGATTT	0.0714
CACGCCAA	0.0393
GCCCTTCC	-0.339
AAGAAGCT	-0.0218
AGAGTGGC	-0.135
CCTTCAGC	-0.119
AGGGCTCA	-0.296
GGGGTTTA	-0.386

Sequence	binding signal [E-score]
TGATCGAA	0.0419
TACAACAA	0.235
AACTTGCG	0.0526
TAATAGGA	0.202
AAGCTATA	0.231
GCACGAGC	-0.213
GCTACGAA	0.0976
ATTCAACG	0.0169
GAAGGGCA	-0.15
AGATCGAC	0.0979
GGGTTTCA	-0.306
CACGAATG	0.0132
AGAAAACT	0.134
GCCCAGGC	-0.236
CGGGCCCG	-0.36
CGATAAGC	0.0195
TGATCTAA	0.0276
CTTCCAGA	-0.106
CTGAGGAC	-0.157
